# In the supplement of paper PMC3334620:
# The full ranking holds about 33,000 sequences; the median of “E-score (-0.5 to 0.5)” is about -0.035, and the highest 2% start at about 0.35. The list shows a part of the results.
# Target: T1, Pdr3 (UniProt P33200)
# T1 sequence: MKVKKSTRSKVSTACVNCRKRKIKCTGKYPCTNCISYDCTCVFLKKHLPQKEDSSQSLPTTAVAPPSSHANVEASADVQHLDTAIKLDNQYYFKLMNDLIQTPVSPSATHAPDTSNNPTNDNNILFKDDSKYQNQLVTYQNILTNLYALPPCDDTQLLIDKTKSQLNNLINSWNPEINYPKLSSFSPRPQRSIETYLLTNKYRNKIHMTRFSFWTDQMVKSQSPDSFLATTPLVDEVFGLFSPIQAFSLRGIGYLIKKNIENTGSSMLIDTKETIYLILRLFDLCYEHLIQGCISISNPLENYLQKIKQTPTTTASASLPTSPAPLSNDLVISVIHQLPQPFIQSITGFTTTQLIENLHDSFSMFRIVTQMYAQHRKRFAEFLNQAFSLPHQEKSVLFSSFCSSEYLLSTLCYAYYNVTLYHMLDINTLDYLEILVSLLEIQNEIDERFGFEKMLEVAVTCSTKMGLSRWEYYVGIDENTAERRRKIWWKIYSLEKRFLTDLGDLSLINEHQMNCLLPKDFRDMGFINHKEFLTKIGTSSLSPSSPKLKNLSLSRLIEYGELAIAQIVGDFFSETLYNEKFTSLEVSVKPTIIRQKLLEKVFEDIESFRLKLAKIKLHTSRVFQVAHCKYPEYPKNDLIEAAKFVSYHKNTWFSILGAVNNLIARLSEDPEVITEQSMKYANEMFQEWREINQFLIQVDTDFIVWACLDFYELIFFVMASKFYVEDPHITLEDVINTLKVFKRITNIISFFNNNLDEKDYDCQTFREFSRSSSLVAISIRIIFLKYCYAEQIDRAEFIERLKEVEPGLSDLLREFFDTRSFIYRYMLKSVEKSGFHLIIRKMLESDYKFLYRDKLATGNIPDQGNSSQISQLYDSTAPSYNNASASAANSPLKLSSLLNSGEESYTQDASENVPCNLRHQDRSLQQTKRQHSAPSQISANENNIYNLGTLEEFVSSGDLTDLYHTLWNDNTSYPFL
# Experiment: PBM E-score (8-mer binding enrichment) (E-score (-0.5 to 0.5)); higher = stronger / more preferred TF binding; most listed sequences are background and not binding sites
# Conditions: protein concentration: 200 nM; construct: GST-full length
# Procedure, shortened: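 For each ungapped eight-base word taken together with its reverse complement, the Universal PBM Analysis Suite assigned an E-score. Binding data came from GST-tagged yeast transcription factors, applied at about 100-200 nM, on universal all-10-mer Agilent arrays made double-stranded by primer extension. Fluorescent anti-GST marked bound protein, and scans were normalised with masliner.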
row,Sequence,PBM E-score
1,GTCCTACA,0.0998
2,ACTTGATC,-0.117
3,GGACGTTA,0.0197
4,AGCATAAG,-0.0742
5,AAAATCCA,0.0216
6,GACTACCC,-0.0793
7,AATAGGCG,0.313
8,AACTCTGT,0.0808
9,CGCCTACC,-0.0645
10,AGACGTGC,-0.0174
11,AGCCTGTA,-0.149
12,GCGTAAGA,-0.0814
13,AACGGAGG,0.185
14,AGCATTGC,-0.145
15,GGGTACAA,-0.0884
16,CGGCAAAG,0.166
17,ACGTTTCA,0.00314
18,CGACCGGC,0.161
19,ACCATCAC,-0.074
20,GCGAACTA,0.121
21,ATACGAAG,-0.0657
22,AAATAAAC,0.0234
23,CCGACAGC,0.0642
24,CTACCGTA,-0.141
25,ACCGTTTC,0.117

row,Sequence,PBM E-score
1,AAGTCTGT,-0.271
2,GACCGCCC,0.0625
3,CGGGTTGC,0.216
4,GCCAACGC,-0.0837
5,GATCAATC,0.0333
6,AAACAGGA,-0.209
7,CAGCGCTG,0.0819
8,CCGTAGGA,-0.239
9,CCCTTTAG,-0.303
10,CTACTAGA,-0.145
11,AAGACGAA,-0.0611
12,TAATGCAA,-0.241
13,ATCTCTCC,-0.0485
14,CAAATATG,-0.101
15,CTAACCAG,-0.169
16,TAATAGCA,-0.212
17,ATTTCTTA,0.0659
18,GCCCCCGA,-0.0849
19,ACTGTTGG,-0.141
20,AGACGAAT,-0.176
21,CGATGAAG,0.00294
22,AAGCATCG,-0.0294
23,ATCTTCCG,0.376
24,ACCGATCT,0.0319
25,ATACAAAT,0.184

row,Sequence,PBM E-score
1,ATGATATA,-0.174
2,CTACTCCC,-0.00145
3,AGGTGTAT,-0.0351
4,ATAGCACA,0.0839
5,ACGGTTAC,0.0508
6,CGTAAACG,-0.083
7,CTTGGGAC,0.0381
8,CCGCAATC,0.263
9,AGAGTCTC,-0.078
10,CCTTAACA,-0.243
11,AGGGGATA,-0.215
12,ATTTAGTG,0.087
13,AGTATGGC,0.0513
14,CTGACAAC,0.00841
15,AGGTTTCG,-0.157
16,ATCAGGAC,0.0194
17,AAGCTGAA,0.0428
18,ACTTGCCG,-0.00332
19,ATCGAGTG,0.051
20,GGAGCACC,0.0149
21,GTTGATAA,-0.0201
22,GGCCTCCA,-0.0635
23,ACGGCTTC,0.097
24,GAGAATGA,0.0557
25,CGACCACG,0.0268

row,Sequence,PBM E-score
1,CTGCAGCC,0.0486
2,ATCGCCGC,0.166
3,GTCCGCGA,0.266
4,AAGGTGCC,0.0662
5,AACTTTCT,-0.0449
6,ATTTCTCC,0.162
7,ATAGTAGC,0.0925
8,AATGCGCC,0.242
9,GGAAGGCA,0.203
10,CCATTTTA,0.0737
11,CGTGGCCA,-0.217
12,GTGTGACA,-0.122
13,GGACGGCA,0.149
14,CGGATCGC,0.279
15,CGGAAAAC,0.375
16,CATAGATC,-0.142
17,CGTTCGAA,0.14
18,AATGCAGA,-0.00017
19,CCCCTCGC,-0.234
20,GGACTACA,-0.0255
21,GCTGATAA,0.0569
22,AACGTATA,-0.164
23,CGCATGAG,-0.164
24,ATTACAAT,-0.0726
25,ATTCGTCG,0.148

row,Sequence,PBM E-score
1,TGGTGTAA,-0.145
2,CACTCCCA,-0.165
3,AAACTACG,0.0869
4,AACTAAAA,0.00575
5,AGTCCGCA,0.203
6,CGTCCGTC,-0.0265
7,TCTTGTCA,-0.0406
8,CGATAATA,0.0612
9,TAAATTTA,0.158
10,AACGTCCG,0.254
11,GATCACTA,0.131
12,ATGGGTAC,-0.299
13,TAAAGCGA,0.0497
14,AACCATCT,-0.104
15,AGTTTAGG,-0.276
16,CACGATGC,-0.146
17,GAGCGGTA,0.0552
18,CTTCGTCC,-0.0469
19,ACAAAAGA,0.0611
20,CGGGTTGA,0.24
21,CCTGGAAA,0.0224
22,AAACGGCC,0.278
23,GTTCCCTA,-0.0497
24,ACTACGAA,-0.277
25,GCTACCTA,-0.0722

row,Sequence,PBM E-score
1,GTGATGCA,0.11
2,GTGGAGAA,-0.11
3,TACGCGTA,-0.0695
4,CCTTCGCA,-0.186
5,CCGGGGTC,0.327
6,ATCAAGGC,-0.104
7,ATGGCTGG,-0.105
8,ACATCCGT,0.216
9,CTCAGCAC,-0.0211
10,CACCAGCA,-0.2
11,ACGCAACA,-0.035
12,GATCACCA,0.0615
13,AGTGGCTC,-0.0868
14,CATCTGTA,-0.113
15,AAGAACTA,0.00668
16,AGGTACAG,-0.293
17,CACCAACA,-0.102
18,TCGAGTCA,-0.262
19,GATATTGA,0.117
20,TAGAAACA,-0.208
21,GAATTTAA,0.0296
22,GTCGCCAA,-0.138
23,TCACAACA,-0.157
24,ATCGCAGC,0.0141
25,GCTGTAAA,-0.32

row,Sequence,PBM E-score
1,ATACACAA,-0.147
2,AAACGGGG,0.186
3,CCGGCAGC,0.362
4,AGGCTCCG,0.306
5,CTACGCAG,-0.191
6,CGTCTGGC,0.146
7,AGGAAGGA,-0.363
8,AACCCTTA,-0.163
9,TACAGCAA,-0.0335
10,CGGGTTCC,0.414
11,AACTGAAC,0.0379
12,CCAGCTGA,-0.0391
13,CATAAAAC,0.0178
14,GGGGGAGA,-0.00585
15,ATTCGACA,-0.133
16,AGCCGCGG,0.485
17,AGGACGGC,-0.0743
18,GCTAGGCA,-0.0802
19,ACACCTTC,0.0728
20,CCGCCTGC,-0.041
21,CCACTCAA,-0.065
22,ATATGACA,0.0428
